Measured values published in PubChem BioAssay AID1745853 (National Center for Advancing Translational Sciences (NCATS), 2022).
Values joined by “and” are separate entries in the source; they are usually repeats but may differ in a detail not shown here. Equal values may be shown once. Some of the results follow. These are further read-outs of the screen, such as a control signal, another cell line or another target. No call is given for them. Peptide text beside a SMILES is read from it.

Columns and labels:
Test in all cases: Primary Screen for Target Class Profiling of Small Molecule Inhibitors of Methyltransferases
[1] = biological target: Glycine N-methyltransferase (Homo sapiens) (UniProt Q14749); settings: purified enzyme, MTase-Glo SAH luminescence; measured here: GNMT inhibition; at 40 µM; stronger effect = lower value
Text: (§1) PI: Matthew D. Hall Ph.D. and Quinlin M. Hanson Ph.D.
(§2) National Center for Advancing Translational Sciences (NCATS)
(§3) National Institute of Health (NIH), Rockville, MD
(§4) Target class profiling (TCP) is a chemical biology approach amenable to investigating understudied biological targets. TCP is achieved by developing a generalizable assay platform and applying it to screen a curated set of compound libraries against representative members of a target class. Small molecule methyltransferases (SMMTase) are a subclass of methyltransferase that act on metabolites to modulate signaling pathways, metabolize xenobiotics, or balance the available methyl pool. We screened four curated libraries totaling 27,574 unique compounds against the SMMTases nicotinamide N-methyltransferase (NNMT), phenylethanolamine N-methyltransferase (PNMT), histamine N-methyltransferase (HNMT), glycine N-methyltransferase (GNMT), catechol O-methyltransferase (COMT), and guanidinoacetate N-methyltransferase (GAMT). The data generated by this TCP can be leveraged for informed tool molecule development. For example, in the associated publication we identified a chemotype of HNMT-selective inhibitors. Additionally, we identified a putative SMMTase-selective inhibitor with potential as a tool molecule for studying broader methyltransferase biology.
(§5) High-through put screening assays were developed at the National Center for Advancing Translational Science (NCATS) for the enzymes NNMT, PNMT, HNMT, GNMT, COMT, and GAMT. Enzymatic activity was measured as a function of SAM cofactor conversion using the MTase Glo kit (Promega) for all enzymes. All assays were performed in 1536-well format with substrates and SAM concentrations at KM values. Enzyme concentration and assay timing were optimized for 10-20% SAM conversion. Initial screening of 27,574 compounds was done as single-point assays using the highest compound concentration (40 uM). […] These compounds were replated in 11-point dose response and assayed against NNMT, PNMT, HNMT, GNMT, COMT, GAMT, and a counter-assay. The IC50 and efficacy (maximal response) values were determined for each dose-response curve. These values are also accounted for in the area under the curve (AUC) values.
(§6) PROTOCOL TABLE (as described by Inglese J, Shamu CE and Guy RK. 2007)
(§7) SEQUENCE No. (e.g., 1, 2, 3, etc.); […] (e.g., Cells, Incubation, Reagent, etc.); VALUE; DESCRIPTION.
(§8) 1; Reagent; 2 uL; SMMTase Enzyme (2x) in reaction buffer, columns 1- 48.
(§9) 2; Reagent; 1 uL; SAM (4x) in reaction buffer, columns 1-48.
(§10) 3; Controls; 23 nL; DMSO in column 4; sinefungin in DMSO (0 uM - 40 uM) in 7-point 1:2 dilution series (n = 2) in column 2.
(§11) 4; Compounds; 23 nL; Columns 5-48.
(§12) 5; Reagent; 1 uL; Substrate (4x) in reaction buffer, columns 2-48.
(§13) 6; Time; 20-30 min; Incubation.
(§14) 7; Reagent; 1 uL; MTase-Glo reagent (5X), columns 1-48.
(§15) 8; Time; 30 min; Incubation.
(§16) 9; Reagent; 5 uL; MTase-Glo Detection reagent, columns 1-48.
(§17) 10; Time; 30 min; Incubation, luminescence evolution.
(§18) 11; Detection; Luminescence; ViewLux uHTS Microplate Imager (PerkinElmer).
(§19) NOTES (numbers refer to Sequence numbers above)
(§20) 1, 2, 5. White Medium Binding Greiner 1536-well plates (Cat #789175-F, Greiner Bio-One, Monroe, NC); Reaction buffer: 50 mM Tris, pH 8.0, 3 mM MgCl2, 1 mM EDTA, 50 mM NaCl, 1 mM DTT, and 0.1 mg/mL BSA. Evaporation was prevented by covering assay plates with metal lids containing holes to allow gas diffusion.
(§21) 1. Six SMMTase were profiled: HNMT, GNMT, PNMT, COMT, NNMT, GAMT
(§22) 5. The corresponding substrate was used for each enzyme: HNMT - 5.3 uM Histamine; GNMT - >500 uM Glycine; PNMT - 16.2 uM Norephinephrine; COMT - 13.7 uM Norephinephrine; NNMT - 3.8 uM Nicotinamide; GAMT - 2.5 uM Guanidinoacetate.6, 8, 10. Room temperature
(§23) 6. Final reaction conditions: 10 nM COMT, 5 uM SAM, 15 uM norepinephrine, 50 mM Tris, pH 8.0, 3 mM MgCl2, 1 mM EDTA, 50 mM NaCl, 1 mM DTT, and 0.1 mg/mL BSA; refer to tables 2 and S1 for specific timing.
8. […]

[2] = biological target: Guanidinoacetate N-methyltransferase (Homo sapiens) (UniProt Q14353); settings: purified enzyme, MTase-Glo SAH luminescence; measured here: GAMT inhibition; at 40 µM; stronger effect = lower value
Text: as §1, §2, §3, §4, §5, §6, §7, §8, §9, §10, §11, §12, §13, §14, §15, §16, §17, §18, §19, §20, §21, §22, §23
8. […]

[3] = biological target: Histamine N-methyltransferase (Homo sapiens) (UniProt P50135); settings: purified enzyme, MTase-Glo SAH luminescence; measured here: HNMT inhibition; at 40 µM; stronger effect = lower value
Text: as §1, §2, §3, §4, §5, §6, §7, §8, §9, §10, §11, §12, §13, §14, §15, §16, §17, §18, §19, §20, §21, §22, §23
8. […]

[4] = biological target: Nicotinamide N-methyltransferase (Homo sapiens) (UniProt P40261); settings: purified enzyme, MTase-Glo SAH luminescence; measured here: NNMT inhibition; at 40 µM; stronger effect = lower value
Text: as §1, §2, §3, §4, §5, §6, §7, §8, §9, §10, §11, §12, §13, §14, §15, §16, §17, §18, §19, §20, §21, §22, §23
8. […]

[5] = biological target: Phenylethanolamine N-methyltransferase (Homo sapiens) (UniProt P11086); settings: purified enzyme, MTase-Glo SAH luminescence; measured here: PNMT inhibition; at 40 µM; stronger effect = lower value
Text: as §1, §2, §3, §4, §5, §6, §7, §8, §9, §10, §11, §12, §13, §14, §15, §16, §17, §18, §19, §20, §21, §22, §23
8. […]
On the % scale 0 is the no-effect control and ±100 the full control effect.

Row | Compound | activity change, negative = inhibition [1] | activity change, negative = inhibition [2] | activity change, negative = inhibition [3] | activity change, negative = inhibition [4] | activity change, negative = inhibition [5]
1 | Cc1cc(C(=O)N(C)CC2(C)CCOCC2)nn1C | -0.707% | -5.49% | 0.589% | 0.211% | -3.36%
2 | CN1CCC[C@@H]1Cc1c[nH]c2ccc(CCS(=O)(=O)c3ccccc3)cc12 | 8.07% and 1.25% | 6.88% and -0.322% and -4.5% | -87.2% and -89.1% | -3.61% and -7.64% and -13.1% | 2.52% and 2.76% and -2.57%
3 | CC(C)C(=O)N1CCC2(CC1)OC(=O)N(Cc1ccccc1)C2(C)c1cccnc1 (stereo not drawn) | -0.88% | 0.365% | -1.23% | -6.65% | -0.863%
4 | O=C(CCc1nnc2n(CCc3ccccc3)c(=O)c3ccccc3n12)NCCCN1CCCC1=O | 0.651% | 4.82% | 4.83% | 11.6% | 1.07%
5 | CC(C)[N+](C)(CCOC(=O)C1c2ccccc2Oc2ccccc21)C(C)C | -3.09% | 3.71% | -2.34% | -7.84% | 3.07%
6 | CNC(=O)COC(=O)NCCC1CCN(c2cccc(C)n2)CC1 | 7.54% | 8.59% | 10.7% | -9.91% | 5.27%
7 | CCN(CC)C(=O)CCn1ccc2cc(S(=O)(=O)N3CCCCC3)ccc21 | 7.33% | 0.23% | 3.58% | 1.11% | -6.45%
8 | CSCC[C@H](NC(=O)[C@H](CO)NC(=O)[C@H](CCC(=O)O)NC(C)=O)C(=O)N[C@H](C=O)CC(=O)O (Ac-ESMD-aldehyde) | -0.318% | 1.01% | 0.341% | -15% | -5.72%
9 | COc1cncc(C#Cc2ccccn2)c1 | 0.543% | 6.23% | 8.47% | -11.5% | 2.08%
10 | Cc1c(OCc2cccc(-c3ccc(C(=O)O)cc3)c2)cc2c(c1C)C(=O)C(C1CCCC1)C2 (stereo not drawn) | -48.9% | -15.6% | -6.54% | -62.5% | -7.48%
11 | CCCCCCCCCCCCCC#CC(=O)[C@@H]1COC(C)(C)N1C(=O)OC(C)(C)C | – | -1.2% | – | -4.77% | 4.68%
12 | COC(=O)c1cc2n(n1)CC(C)(C(=O)NC1CCCCC1)N(c1ccc(F)cc1C)C2=O (stereo not drawn) | 5.54% | 0.944% | 5.11% | 6.08% | 4.78%
13 | CSc1ccc(CCNC(=O)c2cc3n(n2)CC(C)(C(=O)NCc2ccc(C)cc2)N(C)C3=O)cc1 (stereo not drawn) | 4.87% | 0% | 6.17% | 3.19% | 2.13%
14 | CNC(=O)[C@@H]1C[C@@H](n2cc(CNC(=O)Nc3ccc(Cl)cc3C)nn2)CN1 | -1.86% | -1.31% | 0.952% | 1% | 16%
15 | CCCn1c(=O)c2cc(F)ccc2n2c(SCC(=O)Nc3ccc(C)cc3)nnc12 | 7.74% | 1.35% | 10.9% | 8.44% | 6.35%
16 | Cc1ccc(Cc2c(C)nc3nc(SCC(=O)NCCN4CCNCC4)nn3c2C)cc1 | -2.34% | -4.52% | -12.6% | -16.8% | -1.85%
17 | CCCNC(=O)N1Cc2c(sc3c2CCCC3)-n2cccc2C1c1ccc(OCC)cc1 (stereo not drawn) | 0.414% | 0% | 5.33% | -7.2% | 4.98%
18 | CN1CC(=O)N/C1=N/C(=O)Nc1cccc(Cl)c1 | -1.48% | 2.39% | 0.264% | -10.1% | -0.812%
19 | CNC(=O)c1cc(C2CC2)nc2c1c(C1CCCN([S+](=O)([O-])c3c(C)noc3C)C1)nn2C (stereo not drawn) | -0.494% | 0.859% | 3.31% | -2.76% | 14.8%
20 | C=C1C[C@@]23CCC4[C@@](C)(CCC[C@@]4(C)C(=O)OC)C2CC[C@@H]1C3 (stereo partly drawn) | 0% | 12.9% | 11.5% | -2.03% | 3.08%
21 | O=C(c1cc2ccccc2[nH]1)N1CCCC2(C1)NC(=O)N(Cc1ccccc1)C2=O (stereo not drawn) | -4.73% | -8.17% | -3.75% | -9.18% | -5.19%
22 | O=C(C[C@@H]1C[C@H]2O[C@H](CNC3CCC(F)(F)CC3)[C@@H](O)[C@H]2O1)N1CCC(F)(F)C1 | -5.58% | -8.45% | -2.46% | -9.51% | -6.71%
23 | O=C(O)Cc1c[nH]c2ccc(O)cc12 | -19.1% | 2.92% | -0.368% | -4.48% | 2.71%
24 | CC1(C(=O)NC2CCCC2)Cn2cnc(C(=O)NCCc3ccco3)c2C(=O)N1C1CC1 (stereo not drawn) | 3.85% | 1.95% | 5.36% | 1.58% | 3.78%
25 | CC(C)C(=O)N1CCCCCCNC(=O)[C@@H]2C[C@@H](C(=O)NCCc3c[nH]c4ccccc34)C[C@@H]21 | -2.7% | -6.37% | -1.74% | -6.6% | -3.22%
26 | COc1cccc(C(=O)Cn2nc3n(C)c(=O)c4ccc(C(=O)NC5CCCCC5)cc4n3c2=O)c1 | -0.299% | 4.07% | 2.6% | -1.24% | 0.331%
27 | CC(C)NC(=O)CSc1nnc2n(Cc3ccc(F)cc3)c(=O)c3ccccc3n12 | -0.34% | 0% | 7.5% | -3.8% | 2.18%
28 | CCCOc1ccc(-c2nc(OC)c3ccccc3n2)cc1 | -1.98% | -1.3% | 3.37% | -13.9% | -7.51%
29 | COc1cc2c(Oc3ccc(NC(=O)C4(C(=O)Nc5ccc(F)cc5)CC4)cc3F)ccnc2cc1OCCCN1CCOCC1 | -3.3% | 16.4% | 6.22% | -2.23% | 6.73%
30 | CC(=O)OC12CC(C)C(O)C1/C=C(/COC1OC(CO)C(O)C(O)C1O)CCC1C(/C=C(\C)C2=O)C1(C)C (stereo not drawn) | 0% | 2.91% | 9.58% | -7.85% | -1.89%
